Test results published in the supplement of paper PMC10126150.
Sequences with one replicate were seen in a single cluster, so their values are uncertain.

System: ATP
Assay: switch fluorescence ratio, 500 uM ATP over buffer (Cy3 cluster intensity, sum of 5 cycles each) (fold (ratio)); higher = stronger signal-on switching upon ATP binding; sequences stand for … in TCGTCGGCAGCGTCAGATGTGTATAAGAGACAGTTTTTTTTTTTTTTTTTTTTTTTTT…TC
Settings: aptamer strand: ATP DNA aptamer (quencher-CACCTGGGGGAGTATTGCGGAGGAAGG + anchor), 100 nM annealed; ATP concentration: 500 uM; one replicate
Outline: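 Clusters with intensities outside 100-1000 RFU were excluded. The remaining Cy3-labelled switching-strand clusters on a modified Illumina MiSeq flow-cell had been annealed to 100 nM quencher-labelled ATP aptamer and imaged in selection buffer, then after 15 min with 500 uM ATP at 22 °C, for five cycles separated by NaOH stripping and re-annealing. The fluorescence ratio, averaged per switch-domain sequence, is each cluster's summed target-cycle Cy3 intensity over its summed buffer-cycle Cy3 intensity.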
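Note: ATP exposure 15 min at 22 °C before imaging.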

Q: GAGAGGAGG was tested. Which switch fluorescence ratio did it give?
A: 1.01

Q: Which switch fluorescence ratio does the source give for CATATTGGCG here?
A: 1.05

Q: How did the switch fluorescence ratio turn out when CAATGAAGGC was run?
A: 0.963

Q: How did the switch fluorescence ratio turn out when TATTGGATCA was run?
A: 0.975

Q: Which switch fluorescence ratio does the source give for TGATTGAGTC here?
A: 1.03

Q: With GTGGATTTCG as the sequence, how does the switch fluorescence ratio read?
A: 1.02

Q: How did the switch fluorescence ratio turn out when ATATCTTATC was run?
A: 0.937

Q: CCTAATCGAA was tested. Which switch fluorescence ratio did it give?
A: 0.989

Q: How did the switch fluorescence ratio turn out when TCCCGCCCCT was run?
A: 1.57

Q: AAAGTAATTC was tested. Which switch fluorescence ratio did it give?
A: 1.05

Q: With ACCCGAAGCC as the sequence, how does the switch fluorescence ratio read?
A: 1.9

Q: For TCAAATTGG, which switch fluorescence ratio is on record?
A: 1.02

Q: Which switch fluorescence ratio does the source give for CGAAAGACTT here?
A: 1.01

Q: For TTCCATTGTC, which switch fluorescence ratio is on record?
A: 1

Q: How did the switch fluorescence ratio turn out when CCTAGTGGGC was run?
A: 1.08

Q: For ATGATTGGCG, which switch fluorescence ratio is on record?
A: 1.06

Q: For ACGGACTGAG, which switch fluorescence ratio is on record?
A: 1.14

Q: Which switch fluorescence ratio does the source give for AAGTTCAAAT here?
A: 1.04

Q: CAAAGAACCG was tested. Which switch fluorescence ratio did it give?
A: 1.16

Q: GGGGTAACTG was tested. Which switch fluorescence ratio did it give?
A: 0.995

Q: With GCCGCTAACT as the sequence, how does the switch fluorescence ratio read?
A: 1.25

Q: For TCCGGTGAGG, which switch fluorescence ratio is on record?
A: 0.936

Q: TTATACCCGT was tested. Which switch fluorescence ratio did it give?
A: 1.01

Q: Which switch fluorescence ratio does the source give for CTGAGATGTA here?
A: 1.01

Q: How did the switch fluorescence ratio turn out when GGGCAATGGG was run?
A: 1.02

Q: For CACGTTAGGG, which switch fluorescence ratio is on record?
A: 1.07

Q: Which switch fluorescence ratio does the source give for TAGCACACCC here?
A: 1.52

Q: How did the switch fluorescence ratio turn out when CGCCGGGTAT was run?
A: 1.03

Q: Which switch fluorescence ratio does the source give for ACTATAGCTT here?
A: 1.05

Q: With CCGTATCTTA as the sequence, how does the switch fluorescence ratio read?
A: 0.998

Q: For ATGCGAGTTA, which switch fluorescence ratio is on record?
A: 0.995

Q: AATGCCGAAT was tested. Which switch fluorescence ratio did it give?
A: 1.03

Q: For TTACGGTCG, which switch fluorescence ratio is on record?
A: 1.01

Q: Which switch fluorescence ratio does the source give for TGAGCGATGG here?
A: 1.17

Q: Which switch fluorescence ratio does the source give for CGTTCGTATG here?
A: 1

Q: CAGTGTCTTG was tested. Which switch fluorescence ratio did it give?
A: 1.01

Q: How did the switch fluorescence ratio turn out when ATGGTGTATG was run?
A: 0.988

Q: How did the switch fluorescence ratio turn out when AATCCTCGGA was run?
A: 1.04

Q: With AGCGGTTGGC as the sequence, how does the switch fluorescence ratio read?
A: 0.991

Q: GGGAGTAAGC was tested. Which switch fluorescence ratio did it give?
A: 1.03

Q: How did the switch fluorescence ratio turn out when CAAGGGCACA was run?
A: 1.09

Q: How did the switch fluorescence ratio turn out when TATATCTGG was run?
A: 0.964

Q: Which switch fluorescence ratio does the source give for TATCTCTAAG here?
A: 0.993

Q: With CCATAAAGTG as the sequence, how does the switch fluorescence ratio read?
A: 1.05

Q: For CGAAATTGT, which switch fluorescence ratio is on record?
A: 1.87

Q: GATAGGCTTA was tested. Which switch fluorescence ratio did it give?
A: 0.993

Q: With ACCCGTATTC as the sequence, how does the switch fluorescence ratio read?
A: 1

Q: ATGTAGTAAC was tested. Which switch fluorescence ratio did it give?
A: 0.994

Q: For GTATTCGGAA, which switch fluorescence ratio is on record?
A: 1.01

Q: With AGGCCTACGT as the sequence, how does the switch fluorescence ratio read?
A: 0.998

Q: With ATAGGGACTT as the sequence, how does the switch fluorescence ratio read?
A: 0.979

Q: CGATATAGTT was tested. Which switch fluorescence ratio did it give?
A: 0.961

Q: How did the switch fluorescence ratio turn out when AGCCACGACG was run?
A: 1.03

Q: With GCCATTTAGT as the sequence, how does the switch fluorescence ratio read?
A: 0.985

Q: How did the switch fluorescence ratio turn out when GGTTTCACAG was run?
A: 0.956

Q: How did the switch fluorescence ratio turn out when TCCGGGCATT was run?
A: 1.12

Q: How did the switch fluorescence ratio turn out when AAGATGGGCA was run?
A: 1.15

Q: ACTCTTTGAG was tested. Which switch fluorescence ratio did it give?
A: 0.997

Q: With AGCCCAGATA as the sequence, how does the switch fluorescence ratio read?
A: 0.98

Q: With CTGTGGCTAA as the sequence, how does the switch fluorescence ratio read?
A: 1.03

Q: How did the switch fluorescence ratio turn out when GGAATTTGTC was run?
A: 0.947

Q: For AGGTAGATGA, which switch fluorescence ratio is on record?
A: 1.08

Q: TATGTGTCTG was tested. Which switch fluorescence ratio did it give?
A: 0.955

Q: With TTTGCCTGGC as the sequence, how does the switch fluorescence ratio read?
A: 1.04

Q: Which switch fluorescence ratio does the source give for AGCAACTGAT here?
A: 1.04

Q: How did the switch fluorescence ratio turn out when CTGTAGGGCA was run?
A: 1.01

Q: Which switch fluorescence ratio does the source give for CAGTTCCGCT here?
A: 1.11

Q: With CTACCGGTCA as the sequence, how does the switch fluorescence ratio read?
A: 0.998

Q: How did the switch fluorescence ratio turn out when GCGAGCACAG was run?
A: 1.11

Q: Which switch fluorescence ratio does the source give for CCAGTGCACC here?
A: 1.08

Q: ATTGAGAATT was tested. Which switch fluorescence ratio did it give?
A: 0.994

Q: TGAATCCTT was tested. Which switch fluorescence ratio did it give?
A: 0.992

Q: GGATTATAAA was tested. Which switch fluorescence ratio did it give?
A: 0.986

Q: GATACCGCTT was tested. Which switch fluorescence ratio did it give?
A: 1.54

Q: CACCAAGCTA was tested. Which switch fluorescence ratio did it give?
A: 1.09

Q: For GGCAGGCATA, which switch fluorescence ratio is on record?
A: 1.01

Q: Which switch fluorescence ratio does the source give for CCATGTATAG here?
A: 1.04

Q: Which switch fluorescence ratio does the source give for AATCACACAG here?
A: 1.06

Q: ACATGCGGCG was tested. Which switch fluorescence ratio did it give?
A: 1.07

Q: For GCAGGGGAAT, which switch fluorescence ratio is on record?
A: 1.01

Q: AACCATTCAC was tested. Which switch fluorescence ratio did it give?
A: 1.14

Q: Which switch fluorescence ratio does the source give for TGGTATACCC here?
A: 1.02

Q: With TTCGTGCGAC as the sequence, how does the switch fluorescence ratio read?
A: 1

Q: AGTGTTATCG was tested. Which switch fluorescence ratio did it give?
A: 0.977

Q: TCTAGGTAGG was tested. Which switch fluorescence ratio did it give?
A: 0.988
